From PubChem BioAssay AID488969 (Vanderbilt High Throughput Screening Facility, 2010)
Over roughly 110,000 compounds, “z-score” has its median near -0.1; the highest 2% begin near 2. Some of the results follow.

Molecular target: Metabotropic glutamate receptor 8 (Rattus norvegicus) (UniProt P70579)
Test: mGluR8 Gi/Go-coupled signaling modulation – cell-based, rat, thallium flux, HTS, primary screen (AID 488969)
Details: HEK293 rat mGluR8, GIRK (G protein-gated inwardly rectifying potassium channel) thallium flux, FluoZin2; at 10 µM; stronger effect = higher value; submaximal glutamate (EC20) added with thallium

UniProt P70579, sequence (P70579 whole entry, looked up): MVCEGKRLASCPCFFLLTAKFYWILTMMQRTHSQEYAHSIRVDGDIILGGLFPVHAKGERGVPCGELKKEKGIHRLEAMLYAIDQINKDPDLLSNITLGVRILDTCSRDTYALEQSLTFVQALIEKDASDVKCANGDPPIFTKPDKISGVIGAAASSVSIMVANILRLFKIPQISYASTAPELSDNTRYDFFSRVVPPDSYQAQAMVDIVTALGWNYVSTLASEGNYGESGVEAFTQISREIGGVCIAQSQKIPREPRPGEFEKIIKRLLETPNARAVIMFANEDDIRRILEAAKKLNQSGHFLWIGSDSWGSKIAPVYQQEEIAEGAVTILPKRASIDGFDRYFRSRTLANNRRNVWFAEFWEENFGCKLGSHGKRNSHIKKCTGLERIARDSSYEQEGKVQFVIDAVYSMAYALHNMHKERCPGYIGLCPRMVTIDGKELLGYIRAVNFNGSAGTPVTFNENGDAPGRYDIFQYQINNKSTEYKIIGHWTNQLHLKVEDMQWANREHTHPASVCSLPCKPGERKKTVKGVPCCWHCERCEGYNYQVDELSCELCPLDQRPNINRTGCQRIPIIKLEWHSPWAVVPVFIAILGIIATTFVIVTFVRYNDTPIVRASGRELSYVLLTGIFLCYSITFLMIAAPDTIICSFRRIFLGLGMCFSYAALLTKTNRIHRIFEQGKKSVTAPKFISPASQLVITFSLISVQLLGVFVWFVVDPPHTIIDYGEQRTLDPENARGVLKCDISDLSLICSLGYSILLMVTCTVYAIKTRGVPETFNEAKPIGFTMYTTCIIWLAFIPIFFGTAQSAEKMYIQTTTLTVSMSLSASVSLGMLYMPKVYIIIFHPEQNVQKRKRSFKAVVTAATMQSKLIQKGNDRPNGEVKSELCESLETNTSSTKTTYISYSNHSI

**Q.** How did the z-score turn out when `COc1ccc(C(=O)NCc2ccc(N3CCN(C(=O)OC(C)(C)C)CC3)cc2)cc1` was run?
**A.** 0.0243

**Q.** For `c1ccc(-c2nnc(CN3CCC4(CC3)OCCO4)o2)cc1`, which z-score is on record?
**A.** 0.99

**Q.** With `Cc1ccc(NC(=O)CN(C)Cc2ccc(F)cc2)c([N+](=O)[O-])c1` as the molecule, how does the z-score read?
**A.** -0.39

**Q.** For `CCN1CCN(C(c2ccc(OC)cc2)C(O)C(=O)c2c[nH]c3ccccc23)CC1` (stereo unspecified), which z-score is on record?
**A.** 0.0792

**Q.** `CCc1ccc(N2CC34C=CC(O3)C(C(=O)OC)C4C2=O)cc1` (stereo unspecified) was tested. Which z-score did it give?
**A.** 0.0324

**Q.** Which z-score does the source give for `CCOC(=O)c1cc(NC(=O)c2ccc(OC)cc2)c(=O)oc1-c1ccccc1` here?
**A.** 0.822

**Q.** Which z-score does the source give for `CCc1cc(C(=O)NNC(=S)NC(C)c2ccccc2)cs1` (stereo unspecified) here?
**A.** -0.0787

**Q.** Which z-score does the source give for `S=C(NCCc1ccccn1)NC1CCCCC1` here?
**A.** 0.79

**Q.** For `COc1cc2c(cc1NC(=O)Nc1ccccc1)oc1ccccc12`, which z-score is on record?
**A.** -0.0976

**Q.** How did the z-score turn out when `COC(=O)c1ccccc1NC(=O)c1ccc2c(c1)C(=O)N(Cc1ccco1)C2=O` was run?
**A.** -0.251

**Q.** With `S=C(NCc1ccco1)Nc1cc(Cl)c(Cl)cc1Cl` as the molecule, how does the z-score read?
**A.** 0.256

**Q.** With `Cc1cc(C)c2c(N)c(C(=O)N3CCCCCC3)sc2n1` as the molecule, how does the z-score read?
**A.** -0.112

**Q.** For `CCN1C(=O)c2cccc3c(S(=O)(=O)Nc4ccccc4OC)ccc1c23`, which z-score is on record?
**A.** -0.357

**Q.** `CC1CN(C2CCN(S(=O)(=O)c3ccc4ccccc4c3)CC2)CC(C)O1` (stereo unspecified) was tested. Which z-score did it give?
**A.** -0.525

**Q.** How did the z-score turn out when `Cc1ccc(C(C)C)c(Oc2nnnn2-c2ccccc2)c1` was run?
**A.** 1.78

**Q.** `Cc1ccc(CN2CCN(/N=C/c3cc([N+](=O)[O-])ccc3Cl)CC2)cc1` was tested. Which z-score did it give?
**A.** -0.188

**Q.** How did the z-score turn out when `COc1ccc(NS(=O)(=O)c2ccc(NC(=O)c3ccc(N(C)S(C)(=O)=O)cc3)cc2)cc1` was run?
**A.** 1.47

**Q.** Which z-score does the source give for `Cc1cccc(N(C(=O)CNC(=O)c2ccco2)C(C(=O)NC2CCCC2)c2ccncc2)c1` (stereo unspecified) here?
**A.** -0.0705

**Q.** Which z-score does the source give for `CCCCNC(=O)CCn1nc(-c2ccccc2)ccc1=O` here?
**A.** -0.431

**Q.** `COc1ccc(CN(C(=O)c2ccc3c(c2)OCCO3)C(C(=O)NC2CCCCC2)c2ccc3ncccc3c2)cc1` (stereo unspecified) was tested. Which z-score did it give?
**A.** -0.109

**Q.** How did the z-score turn out when `c1cnc(Oc2ccc3oc4ccccc4c3c2)nc1` was run?
**A.** 0.482

**Q.** `CCOc1ccc2[nH]c(=O)c(CN(CCOC)C(=O)N3CCOCC3)cc2c1` was tested. Which z-score did it give?
**A.** -0.0737

**Q.** `COc1ccc(CNC(=O)C2COc3ccccc3O2)cc1` (stereo unspecified) was tested. Which z-score did it give?
**A.** 0.617

**Q.** Which z-score does the source give for `O=C(CCCn1c(=O)[nH]c2ccsc2c1=O)NCc1cccs1` here?
**A.** 0.377

**Q.** With `COC(=O)NNC(=S)NCc1ccc(C)cc1` as the molecule, how does the z-score read?
**A.** -0.18

**Q.** How did the z-score turn out when `Cn1c(=O)c2ncn(CC(=O)NC3CCCCCC3)c2n(C)c1=O` was run?
**A.** 0.0135

**Q.** How did the z-score turn out when `O=C(Nc1ccc2c(c1)OCCO2)c1ccccc1F` was run?
**A.** 0.326

**Q.** Which z-score does the source give for `COc1ccc(NC(=O)CSc2nnc3c4c(nc(-c5ccccc5)n23)CC(C)(C)OC4)cc1` here?
**A.** -0.0793

**Q.** `CC1CCN(S(=O)(=O)c2ccc3c(c2)c(=O)c(C(=O)N2CCCCC2)cn3C)CC1` was tested. Which z-score did it give?
**A.** 0.338

**Q.** Which z-score does the source give for `CC1(C)CC(=O)C(CC(=O)NC(=O)NCc2ccccc2)=C(O)C1` here?
**A.** 0.0672

**Q.** How did the z-score turn out when `Cc1cccc(C(=O)NCCc2nnc(SCC(=O)Nc3nc(C)cs3)n2C)c1` was run?
**A.** 2.62

**Q.** Which z-score does the source give for `COc1ccc(NC(=O)/C=C/c2ccc(C)o2)cc1S(=O)(=O)N1CCOCC1` here?
**A.** -0.191

**Q.** For `COC(=O)C1C2CCC(C2)C1C(=O)OCC(=O)c1ccc(C)cc1` (stereo unspecified), which z-score is on record?
**A.** -0.107

**Q.** With `Cc1ccc(S(=O)(=O)c2nc(Nc3ccccc3N3CCOCC3)sc2Cl)cc1` as the molecule, how does the z-score read?
**A.** -0.432

**Q.** `CC1(C)CC(=O)C2=C(C1)OC1=C(C(=O)CC(C)(C)C1)C2c1ccccc1` was tested. Which z-score did it give?
**A.** -0.146

**Q.** `Cc1cc(/C=C2/NC(=O)NC2=O)c(C)n1-c1cccnc1` was tested. Which z-score did it give?
**A.** -0.806

**Q.** `O=C(CCn1c(=O)oc2ccccc21)N1CCc2ccccc21` was tested. Which z-score did it give?
**A.** -0.0986

**Q.** With `Cc1ccc(-n2nc3c(n2)/C(=N/O)CC/C3=N\O)cc1` as the molecule, how does the z-score read?
**A.** 0.359

**Q.** Which z-score does the source give for `CCOC(=O)Cc1cc(OC)c(OC)cc1Cc1cc(OC)c(OC)cc1CC(=O)OCC` here?
**A.** 0.379

**Q.** Which z-score does the source give for `O=C(O)c1ccc(CSc2nnc(Cc3ccccc3)o2)cc1` here?
**A.** 0.0263

**Q.** For `Cc1ccc([N+](=O)[O-])cc1S(=O)(=O)N(C(=O)c1ccncc1)c1ccc2oc3c(c2c1)CCCC3`, which z-score is on record?
**A.** 0.13

**Q.** Which z-score does the source give for `O=C(c1ccco1)N1CCCN(C(=O)c2ccco2)CC1` here?
**A.** -0.354

**Q.** For `Cc1cc(=O)[nH]c(SCC(=O)N2c3ccccc3CC2C)n1` (stereo unspecified), which z-score is on record?
**A.** -0.586

**Q.** With `Cc1ccc(C)c(OCCCC(=O)O)c1` as the molecule, how does the z-score read?
**A.** -0.184

**Q.** Which z-score does the source give for `Cc1cc(=O)oc(C)c1C(=O)NCCCN1C(C)CCCC1C` (stereo unspecified) here?
**A.** 0.465

**Q.** With `Cc1sc2ncn(CC(=O)NCCc3ccccc3)c(=O)c2c1C` as the molecule, how does the z-score read?
**A.** 0.251

**Q.** For `O=C(CN1CCCCC1)NCCNC(=O)CN1CCCCC1`, which z-score is on record?
**A.** 0.0176

**Q.** `N#Cc1nc(-c2ccco2)oc1N1CCN(C(c2ccccc2)c2ccccc2)CC1` was tested. Which z-score did it give?
**A.** -0.0381

**Q.** With `COC(=O)c1sccc1NC(=O)c1cccc(OC)c1` as the molecule, how does the z-score read?
**A.** -0.0306

**Q.** Which z-score does the source give for `Cc1c(C(=O)OC(C)C)[nH]c2c1C(=O)CCC2` here?
**A.** -0.64

**Q.** `CCSc1nc(C)cc(C)c1S(=O)(=O)c1ccccc1C` was tested. Which z-score did it give?
**A.** -0.237

**Q.** For `CCOC(=O)C1CCC(CN(Cc2ccccc2)S(=O)(=O)c2ccc([N+](=O)[O-])cc2)CC1` (stereo unspecified), which z-score is on record?
**A.** -0.476

**Q.** Which z-score does the source give for `CCOC(=O)Cn1nc(/C=C/c2ccccc2)ccc1=O` here?
**A.** -0.0963

**Q.** With `O=C(Nc1ccc(N2CCCC(O)C2)cc1)c1snc2c(=O)[nH]cnc12` (stereo unspecified) as the molecule, how does the z-score read?
**A.** -0.238

**Q.** `O=C(COc1ccc2ccccc2c1)NCCc1ccc2c(c1)OCCO2` was tested. Which z-score did it give?
**A.** -0.724

**Q.** `Cc1cc(=O)n2ncnc2n1COCCO` was tested. Which z-score did it give?
**A.** 0.12

**Q.** For `CC(C)Cn1c(-c2nn(C)cc2Cl)n[nH]c1=S`, which z-score is on record?
**A.** 0.244

**Q.** How did the z-score turn out when `CCc1cc(=O)oc2cc(C)cc(OC(=O)c3ccco3)c12` was run?
**A.** -1.04

**Q.** `Cc1cccc(C)c1NC(=O)CSc1nnc(-c2ccncc2)n1Cc1ccco1` was tested. Which z-score did it give?
**A.** -0.176

**Q.** How did the z-score turn out when `CC(/C=N/NC(=O)c1ccncc1)=C\c1ccccc1` was run?
**A.** 0.474

**Q.** For `Cc1nc2cc(C(=O)O)ccc2n1-c1ccccc1`, which z-score is on record?
**A.** -0.182

**Q.** With `COc1cccc(-c2[nH]nc3c2C(c2ccsc2)C(C#N)=C(N)O3)c1` (stereo unspecified) as the molecule, how does the z-score read?
**A.** -0.357

**Q.** For `C=CCn1c(=O)c(C(=O)Nc2ccccc2O)c(O)c2ccccc21`, which z-score is on record?
**A.** -0.43

**Q.** How did the z-score turn out when `C=CCNc1nc(Nc2ccc(OC)cc2)nc(OCC)n1` was run?
**A.** -0.00352

**Q.** With `COc1cc(/C=N/NC(=O)c2[nH]nc3c2CCc2ccccc2-3)ccc1O` as the molecule, how does the z-score read?
**A.** -0.565

**Q.** `Cc1nn(C)c(C(=O)NNC(=S)Nc2ccc(F)cc2)c1[N+](=O)[O-]` was tested. Which z-score did it give?
**A.** -0.092

**Q.** Which z-score does the source give for `CCOC(=O)c1c(C)oc2c1cc(O)c1ccccc12` here?
**A.** -0.493

**Q.** Which z-score does the source give for `O=C(CSc1nnc(COc2ccccc2)o1)c1ccccc1` here?
**A.** -0.179

**Q.** How did the z-score turn out when `O=C(Cc1cccs1)Nc1cccc(-c2nc3ccccc3[nH]2)c1` was run?
**A.** 0.109

**Q.** Which z-score does the source give for `CN(Cc1ccccc1)C(=S)NC(=O)C1CCCCC1` here?
**A.** 1.47

**Q.** How did the z-score turn out when `COc1ccccc1S(=O)(=O)Cc1ccc(C(=O)N2CCN(c3ccccc3)CC2)o1` was run?
**A.** -0.523
